Laboratory results from the supplement of paper PMC3334620.
The full ranking holds about 33,000 sequences; the median of “E-score (-0.5 to 0.5)” is about -0.041, and the highest 2% start at about 0.37. The list shows a part of the results.

target: T1, Ecm22 (UniProt Q05958); experiment: PBM E-score (8-mer binding enrichment) (E-score (-0.5 to 0.5)); higher = stronger / more preferred TF binding; most listed sequences are background and not binding sites; conditions: protein concentration: 200 nM; construct: GST-full length
T1 sequence: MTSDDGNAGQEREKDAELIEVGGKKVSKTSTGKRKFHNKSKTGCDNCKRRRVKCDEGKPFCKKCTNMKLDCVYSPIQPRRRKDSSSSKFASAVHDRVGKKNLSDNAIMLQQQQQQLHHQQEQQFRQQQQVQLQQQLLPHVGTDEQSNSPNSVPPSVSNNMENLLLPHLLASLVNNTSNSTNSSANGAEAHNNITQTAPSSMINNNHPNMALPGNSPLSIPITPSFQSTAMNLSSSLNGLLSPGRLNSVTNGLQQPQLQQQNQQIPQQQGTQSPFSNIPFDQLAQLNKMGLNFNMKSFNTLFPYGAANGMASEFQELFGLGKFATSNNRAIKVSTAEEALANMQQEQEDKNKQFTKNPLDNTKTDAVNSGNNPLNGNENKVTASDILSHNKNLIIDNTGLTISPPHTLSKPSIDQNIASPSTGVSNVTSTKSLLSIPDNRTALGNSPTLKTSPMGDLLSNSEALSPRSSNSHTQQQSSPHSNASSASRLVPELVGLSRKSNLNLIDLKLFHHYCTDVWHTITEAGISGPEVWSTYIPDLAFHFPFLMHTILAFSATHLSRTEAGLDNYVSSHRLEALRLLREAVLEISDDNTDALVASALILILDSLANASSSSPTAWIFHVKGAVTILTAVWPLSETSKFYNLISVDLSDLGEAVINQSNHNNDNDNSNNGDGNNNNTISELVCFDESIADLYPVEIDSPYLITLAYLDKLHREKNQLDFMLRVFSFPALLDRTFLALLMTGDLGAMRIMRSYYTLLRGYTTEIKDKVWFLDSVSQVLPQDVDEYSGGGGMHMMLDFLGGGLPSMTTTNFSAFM
How it was run: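 Masliner-normalised scans of fluorescent anti-GST signal were the basis for scoring. That signal came from GST-tagged yeast transcription factors applied at about 100-200 nM to double-stranded universal all-10-mer Agilent arrays on fresh or once-stripped slides. Each ungapped eight-base word, pooled with its reverse complement, received an E-score from the Universal PBM Analysis Suite.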

| Sequence | PBM E-score |
| --- | --- |
| CCCGTGAC | -0.208 |
| ATGTGCCA | -0.179 |
| CCTATCCC | 0.0555 |
| AATTACAG | 0.136 |
| CTTAAAGC | 0.0218 |
| CCACTGGA | -0.185 |
| ATCCTGAG | 0.0109 |
| AACGTGAT | -0.0739 |
| CCGATTGA | 0.105 |
| CCATGGCG | -0.127 |
| AGACGCCC | -0.00408 |
| GCGCCACA | -0.157 |
| AAATTTTA | 0.00096 |
| CCAAAATC | 0.00217 |
| CTTCACGC | -0.0333 |
| CACAGTGC | -0.162 |
| ATCCACTA | 0.0408 |
| CTCCCGAA | -0.0815 |
| AAAATGCA | -0.279 |
| AACTCAGA | -0.0918 |
| CCTTTCCG | -0.124 |
| GCCTTTCC | -0.146 |
| GCATATCA | 0.0456 |
| AAACCAAT | -0.0653 |
| GCGTTAAA | 0.193 |

| Sequence | PBM E-score |
| --- | --- |
| GGAAACCC | -0.0043 |
| AACGTATT | 0.229 |
| GGGGAGAC | -0.172 |
| AGCAGTAT | 0.0123 |
| CAACATGA | 0.0013 |
| CAGCTAAA | 0.116 |
| CCGTTTCC | 0.143 |
| CGTCCCTC | -0.126 |
| AAGTGGCT | -0.096 |
| GCAGACTA | -0.184 |
| CATGTTCG | 0.153 |
| CCGAAAGC | -0.111 |
| TAACGTGA | -0.142 |
| GGGATGGA | -0.175 |
| CGAAAAAA | 0.205 |
| ATCCCAGC | -0.0508 |
| ACGCTGCG | -0.00203 |
| CTTACCTC | -0.189 |
| CAAGGCCG | -0.0953 |
| AAGTAGTC | -0.111 |
| TCAGAGGA | -0.129 |
| CGCTGCAG | -0.0938 |
| GGCATAGA | -0.0188 |
| AGCCACTC | -0.0524 |
| GATGTTAC | 0.0255 |

| Sequence | PBM E-score |
| --- | --- |
| GGACTTAA | -0.112 |
| AAAGTTCG | 0.155 |
| CGAACCAA | 0.0945 |
| AAAATCAC | -0.0192 |
| CCCGCGAG | 0.115 |
| AGTCAAGA | -0.0711 |
| AAGGTGAA | -0.06 |
| AACCGTAG | 0.104 |
| AAAATTTT | -0.127 |
| ATTTGCTA | -0.262 |
| GTAGAAAC | 0.0897 |
| CCTCAACA | -0.0357 |
| TCCCAACA | -0.164 |
| CGCTCAAG | 0.114 |
| CGAAGCAA | 0.107 |
| ACCCAGTC | -0.172 |
| CACACTGC | -0.212 |
| CAGTTCCA | -0.0209 |
| AGTCCTAT | -0.24 |
| CACCATAA | -0.0782 |
| ATCATTCG | 0.178 |
| TACCAGCA | 0.0478 |
| GGGAGCAC | -0.129 |
| GTCTAGGA | -0.141 |
| ACCTGTGA | -0.00512 |

| Sequence | PBM E-score |
| --- | --- |
| AGGTGTGG | -0.111 |
| GTATTTTA | 0.126 |
| AGATGGCG | -0.102 |
| TCTGAGAA | -0.0868 |
| ACTTATAA | 0.036 |
| ATAAGTCA | -0.148 |
| CAAGCCCG | -0.0497 |
| AGTAGCAG | -0.00574 |
| ATCGCGAG | 0.261 |
| CCAATACA | -0.159 |
| GATTGTAC | 0.128 |
| GAAGTTAC | 0.122 |
| TCATGAGA | 0.0162 |
| CATGACGA | 0.0488 |
| CAAAGGAG | -0.155 |
| GACGGCCA | -0.244 |
| AAACGTGT | 0.139 |
| ATAAAGAG | -0.121 |
| CACTGATG | -0.201 |
| GCGCCGTA | 0.346 |
| CCCTGCCC | -0.24 |
| ATTGCATG | -0.0321 |
| GCTTTGTA | 0.0419 |
| CAAGCCGC | -0.0639 |
| AACGATCC | 0.307 |

| Sequence | PBM E-score |
| --- | --- |
| AGTAAATG | -0.0697 |
| ACTTTGAG | -0.194 |
| ACGGTACA | 0.155 |
| AAGGGGGT | -0.292 |
| AATGGTCG | 0.101 |
| ATCCCGTC | -0.0694 |
| CAGTCCTC | -0.424 |
| AAGAGCCA | 0.00838 |
| GACACATC | -0.0159 |
| CCTTTTAA | -0.0729 |
| CTGCGATA | 0.0863 |
| GGGATGTA | -0.0679 |
| AAGAGACC | -0.164 |
| ATCCAATG | -0.223 |
| CTCATGGA | -0.205 |
| ACGACCGA | 0.394 |
| GTATTGAC | -0.0185 |
| GGGGAAAC | -0.0478 |
| GACACTCC | -0.0444 |
| CCAGGAGC | -0.0697 |
| CAATCGAA | 0.0253 |
| CAAGCCCA | -0.195 |
| GTTTCTCA | -0.0183 |
| TAGAGGCA | -0.0942 |
| AAGCTGGA | 0.0238 |

| Sequence | PBM E-score |
| --- | --- |
| CACCATCA | -0.104 |
| AACTGGTG | -0.114 |
| AGATACGG | 0.28 |
| TAAAGGGA | -0.0675 |
| AAGTCCGA | 0.00285 |
| GATATAGC | 0.196 |
| CCAAATAG | -0.0461 |
| CGGTGTAC | 0.295 |
| CATAAATA | -0.00296 |
| CTGAAAAC | -0.0564 |
| TCGAACGA | 0.373 |
| ATACTGAC | 0.0254 |
| GAGGTATC | -0.0143 |
| AGTATATA | 0.341 |
| GCGATGGA | 0.0944 |
| AACGAGCC | 0.442 |
| AGGACTCC | -0.245 |
| AGCTTGCC | -0.118 |
| CGCCCCAC | -0.0585 |
| CCACTAGA | -0.31 |
| CCCACGAG | -0.163 |
| CCGGCTAC | -0.0157 |
| AGACTGTC | -0.103 |
| ACGTGGAG | 0.068 |
| CCTCTTCG | 0.111 |

| Sequence | PBM E-score |
| --- | --- |
| ATGCCCTA | -0.201 |
| CTTGCCTC | 0.111 |
| CTGACGCC | -0.09 |
| CTGCCCCC | -0.264 |
| AAAGGTAG | -0.237 |
| ACCACCTA | -0.204 |
| ACGCGGTC | 0.0261 |
| CACTGAAC | 0.126 |
| ATCCCTAG | -0.121 |
| AAGGGCAC | -0.28 |
| GCATTGCA | -0.166 |
| CGGAGTCC | -0.246 |
| CGCGGCTA | 0.0813 |
| AGCTCATG | -0.0882 |
| CTCTAAAG | -0.199 |
| ACTCATAA | -0.0425 |
| ACGCAACC | 0.0517 |
| AACTACCG | -0.0253 |
| CTCGGAAG | 0.0345 |
| GACCTCTC | 0.0888 |
| CTAGAGAC | -0.191 |
| GGGGTTGA | -0.249 |
| GATAAACC | 0.00425 |
| CGGGTCGA | -0.00467 |
| ACATGTGC | 0.0554 |

| Sequence | PBM E-score |
| --- | --- |
| GATGCTGC | -0.112 |
| ACGGATTG | 0.189 |
| CCTACCGA | 0.0195 |
| AAAGGGTG | -0.261 |
| CGTTGGCA | 0.05 |
| AACATCGT | 0.264 |
| ACCGTGTG | -0.0211 |
| GAGGTCTA | 0.0563 |
| GTTAGGCA | -0.322 |
| AATTACTC | -0.165 |
| CGCAATCC | 0.0833 |
| ACTGTCAG | -0.086 |
| AGCTAGAG | -0.0823 |
| CGGCTTTC | -0.00764 |
| ACCCCTCT | -0.217 |
| ACTCCTTC | -0.211 |
| CGAATATC | 0.145 |
| CACCTGAG | -0.272 |
| AGGATAAG | -0.0902 |
| ACAGGAAT | -0.231 |
| GACCAGGA | -0.0856 |
| TGGGTGAA | 0.0282 |
| GCGGCTAA | -0.034 |
| CGATCGAC | 0.00021 |
| ATTCAATA | 0.0713 |

| Sequence | PBM E-score |
| --- | --- |
| TATTCTAA | 0.0623 |
| TTCATCAA | -0.0685 |
| TAGCATGA | -0.251 |
| TTCGTCAA | 0.142 |
| AAGAACGT | 0.101 |
| CCCCATGC | -0.239 |
| ACGGGCAA | 0.188 |
| CAGACCCG | -0.0751 |
| ATCAGTAC | 0.125 |
| CTACTATC | 0.047 |
| GTCTAAAC | 0.0979 |
| CAATTCAG | -0.149 |
| AAGCCAAC | 0.114 |
| GCGTATGA | 0.218 |
| AATTATAG | 0.00483 |
| AACCAATG | -0.113 |
| CTAGCGAG | 0.168 |
| AGGTAAGA | 0.0356 |
| ATCAACAT | -0.0773 |
